For 1 compound, TGI results are on record in PubChem BioAssay (NCI).

The test has as its system MDA-MB-468 breast. Kind of test: NCI-60 cell line screen, 48 h.

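These data come from cells grown in 96-well plates and exposed to compound for 48 hours at five concentrations. TGI: total growth inhibition.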 Certain results were filed several times, with different values. The list is limited to them. The source may hold further records. Records of one sample usually come from different ranges of test concentrations, not given here; a value can be the end of its range.

Regarding `COc1ccc(C2CC(c3ccc4ccccc4c3)=NN2c2nc(O)c(C3=c4cc(Cl)ccc4=NC3=O)s2)cc1` (stereo unspecified), the TGI was 50.9 nM and < 5 nM.
